From paper PMC4336329 (PLoS ONE, 2015)
Among all 310,000 compounds or so, about 14,000 (4.5%) showed an effect of 50% or more. The effect is printed as a negative number. This is one part of the list.

Target: human ether-à-go-go-related gene (hERG) potassium channel (human, UniProt Q12809)
Test: primary screen, population patch clamp on CHO cells stably expressing hERG
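Note: peak tail current of the secondary pulse compared with the same well before compound.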

human ether-à-go-go-related gene (hERG) potassium channel, sequence (Q12809 whole entry, looked up): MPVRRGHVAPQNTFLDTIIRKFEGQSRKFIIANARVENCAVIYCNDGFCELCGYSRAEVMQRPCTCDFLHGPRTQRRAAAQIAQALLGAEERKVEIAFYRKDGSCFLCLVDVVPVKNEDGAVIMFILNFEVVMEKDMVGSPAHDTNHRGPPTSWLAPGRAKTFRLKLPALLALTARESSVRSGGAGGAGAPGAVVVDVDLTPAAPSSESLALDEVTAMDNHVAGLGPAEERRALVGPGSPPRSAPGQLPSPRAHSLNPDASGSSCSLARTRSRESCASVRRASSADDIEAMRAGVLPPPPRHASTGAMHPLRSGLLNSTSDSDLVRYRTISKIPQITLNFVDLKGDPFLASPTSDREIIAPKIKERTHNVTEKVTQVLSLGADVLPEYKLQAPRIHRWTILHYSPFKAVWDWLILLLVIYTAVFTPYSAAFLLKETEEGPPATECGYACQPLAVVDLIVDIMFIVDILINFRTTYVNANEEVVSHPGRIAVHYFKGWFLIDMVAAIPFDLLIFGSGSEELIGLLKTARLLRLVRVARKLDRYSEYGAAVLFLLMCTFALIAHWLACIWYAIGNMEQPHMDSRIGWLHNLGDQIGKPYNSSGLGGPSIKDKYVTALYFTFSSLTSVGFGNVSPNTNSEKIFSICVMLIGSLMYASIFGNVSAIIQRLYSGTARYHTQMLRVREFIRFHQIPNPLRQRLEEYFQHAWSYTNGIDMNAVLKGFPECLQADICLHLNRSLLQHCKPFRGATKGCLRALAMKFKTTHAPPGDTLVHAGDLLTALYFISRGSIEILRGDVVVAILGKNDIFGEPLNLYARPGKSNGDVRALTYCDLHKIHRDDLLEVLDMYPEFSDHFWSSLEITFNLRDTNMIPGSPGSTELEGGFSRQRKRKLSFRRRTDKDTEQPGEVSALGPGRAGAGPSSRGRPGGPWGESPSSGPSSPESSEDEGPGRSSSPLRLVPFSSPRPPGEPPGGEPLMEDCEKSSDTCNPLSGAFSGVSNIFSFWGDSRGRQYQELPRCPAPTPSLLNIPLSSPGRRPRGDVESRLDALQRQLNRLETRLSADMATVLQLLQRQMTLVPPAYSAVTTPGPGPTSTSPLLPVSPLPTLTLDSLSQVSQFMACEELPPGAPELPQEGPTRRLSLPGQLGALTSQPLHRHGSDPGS

| SMILES | hERG current change (%, negative = inhibition) at 10uM |
| --- | --- |
| COc1ccccc1NNC(=O)C(O)(c1ccccc1)c1ccccc1 | -0.163% |
| C=C(C)Cn1c(CCNC(=O)c2ccco2)nc2ccccc21 | -21.4% |
| O=C(CSc1ccccc1)OCC(=O)N1CCN(C(=O)c2ccco2)CC1 | -27% |
| CN(Cc1cn(C)nc1-c1ccccc1F)CC1CCN(Cc2ccccc2)CC1 | -15.6% |
| CCCS(=O)(=O)Nc1cccc(-c2nc3cccnc3s2)c1 | 9.28% |
| CCCN1C2CCCC1CC(NC(=O)C1CCCCC1)C2 (stereo not drawn) | 2.01% |
| Cc1ccc(S(=O)(=O)NC(=O)Nc2nnc(C3CC3)s2)cc1 | -7.17% |
| COC(=O)COc1cccc(NC(=O)c2ccc(Cl)cc2)c1 | 0.783% |
| CC1C(=O)N2CCCc3cc(S(=O)(=O)N(C)c4ccccc4)cc1c32 (stereo not drawn) | 6.6% |
| CCn1cc(C(=O)OCC(=O)NCc2ccc3c(c2)OCO3)c(=O)c2ccc(C)nc21 | -7.47% |
| Cc1ccc(NC(=O)CS(=O)CC(=O)NCCCN(C)c2ccccc2)cc1 (stereo not drawn) | -2.26% |
| Cl.N=c1c2c(n(Cc3ccccc3)c3c1CCC3)CCC2 | -0.485% |
| CCOc1ccc(-c2ncncc2-c2ccc(OC)cc2)c(O)c1 | -19.3% |
| O=C(c1c(F)c(F)c(F)c(F)c1F)N1CCN(Cc2ccc3c(c2)OCO3)CC1 | 7.68% |
| CC(C)C[C@H](NC(=O)c1[nH]cnc1C(=O)N[C@@H](C)c1ccccc1)C(=O)OC(C)(C)C | 12.5% |
| CCOc1ccccc1N(CC(=O)Nc1ccc2c(c1)OCO2)S(C)(=O)=O | 1.48% |
| O=c1[nH]c2cc3c(cc2cc1C(c1nnnn1Cc1ccccc1)N1CCN2CCCC2C1)OCCO3 (stereo not drawn) | -0.778% |
| O=S1(=O)CCN(Cc2ccccn2)CC1 | 0.269% |
| O=C1/C(=C/c2ccccc2)CSc2sccc21 | -16.1% |
| CC(C)Cc1nnc(NC(=O)CCC(=O)N2CCN(c3ccc(F)cc3)CC2)s1 | 1.08% |
| NS(=O)(=O)c1ccc(NC(=O)C2COc3ccccc3O2)cc1 (stereo not drawn) | 0.967% |
| COc1ccc(S(=O)(=O)N2CCOC2CNC(=O)C(=O)NCc2ccccn2)cc1 (stereo not drawn) | -7.6% |
| Cc1nc2ccccn2c1C(=O)N/N=C/c1ccccc1[N+](=O)[O-] | 2.26% |

| SMILES | hERG current change (%, negative = inhibition) at 10uM |
| --- | --- |
| O=S(=O)(c1ccccc1)c1cnc(-c2cccnc2)nc1-c1ccc(Cl)cc1Cl | -6.25% |
| Cc1csc(NC(=O)c2cc[n+]([O-])cc2)n1 | -18.7% |
| COc1ccc2[nH]cc(CCNC(=O)C3CCCCC3)c2c1 | 9.26% |
| COc1cccc(Nc2c(Nc3cccc(OC)c3)c(=O)c2=O)c1 | 36.4% |
| N/C(=N\OC(=O)CCCc1ccccc1)c1cccc([N+](=O)[O-])c1 | -3.9% |
| CCc1cc2c(=O)[nH]c(N3CCOCC3)nc2s1 | -2.01% |
| CCC(C)c1ccccc1NC(=O)CN1CCN(C/C=C/c2ccccc2)CC1 (stereo not drawn) | -60.4% |
| CCCCCCC(=O)Nc1c(O)c2ccccc2[nH]c1=O | 14.7% |
| O=C(O)Cn1nc(-c2ccccc2)oc1=O | -1.35% |
| CCOC(=O)N1CCN(CC(O)c2ccc3c(c2)CCN3)CC1 (stereo not drawn) | 1.32% |
| COc1cccc(CNC(=O)CCc2nc3cc(S(=O)(=O)N4CCOCC4)ccc3n2C)c1 | 6.47% |
| CSc1ccccc1C(=O)N1CCN(S(=O)(=O)c2sc(C(=O)O)c(C)c2C(=O)O)CC1 | -2.5% |
| COc1ccc(OCCOC(=O)c2ccc(-n3cnnn3)cc2)cc1 | -15.9% |
| Cc1cc(NC(=O)COn2nnc3ccc(S(C)(=O)=O)cc32)ccc1Br | -25.6% |
| CCCCCCOc1ccc(N2C(=O)CC(N3CCN(C(=O)c4ccco4)CC3)C2=O)cc1 (stereo not drawn) | -7.66% |
| CCN1c2ccccc2-c2nc3ccccc3n2C1c1ccco1 (stereo not drawn) | -16.4% |
| NS(=O)(=O)c1cnccc1NCCc1ccccc1 | 9.56% |
| O=C(NNC(=O)c1ccc(Cl)cc1Cl)Nc1ccccc1 | 5.05% |
| COc1ccc(CNC(=O)NS(=O)(=O)c2ccc(C)cc2)cc1 | -8.46% |
| O=C(C1CCCCC1)N1CCN=C1SCc1cccc([N+](=O)[O-])c1 | -40.6% |
| Cc1cccc(C(C)C)c1NC(=O)C(C)OC(=O)Cc1n[nH]c(=O)c2ccccc12 (stereo not drawn) | 10.1% |
| Cc1nn(CC(=O)Nc2ccc(Cl)cc2)c(=O)c2cc(-c3ccccc3)nn12 | 18% |
| COc1cc2cnc(-c3ccccc3)c(-c3ccc([N+](=O)[O-])cc3)c2cc1OC | 3.36% |

| SMILES | hERG current change (%, negative = inhibition) at 10uM |
| --- | --- |
| COc1ccc(/C=N/NC(=O)c2sccc2C)c2ccccc12 | 15.7% |
| COc1ccccc1/C=C1\S/C(=N/NC(=O)c2cccc(Br)c2)NC1=O | 13.1% |
| Cc1ccc(-n2c(Cc3cccn3C)nnc2SCC(=O)NC2CCCCC2)cc1 | -29.9% |
| CC(C)CNc1nc(NC(C)(C)C)nc(Oc2ccc(=O)[nH]n2)n1 | 9.66% |
| Cc1cc(C)nc(NC(=S)Nc2ccccc2)n1 | 2.61% |
| O=C(Nc1cccc(S(=O)(=O)N2CCCCC2)c1)c1ccc2ncsc2c1 | -11.6% |
| CCC(CC)=NNc1ccc(S(N)(=O)=O)cc1[N+](=O)[O-] | -7.15% |
| CCOc1ccc(NC(=O)COc2ccc(S(=O)(=O)N3CCCC3)cc2)cc1 | 14.8% |
| CSc1ncccc1C(=O)OCc1ccc(Br)cc1 | 19.3% |
| COc1cc(OC)c2c(O)c3c(c(-c4c5c(c(O)c6c(OC)cc(OC)cc46)CO[C@@H](C)[C@H]5O)c2c1)[C@H](O)[C@H](C)OC3 | 7.77% |
| CCn1c(O)c(/C=N/n2cnnc2)sc1=S | -1.4% |
| COc1cc(-c2noc(C)n2)cc(OC)c1OC | 13.4% |
| COC(=O)c1c(NC(=O)c2nc3ccccc3s2)sc2c1CC(C)(C)NC2(C)C | -1.04% |
| CC(=O)Nc1nc(C)c(Oc2ccccc2)c(=O)[nH]1 | -1.89% |
| Cc1ccc(-c2nnn(CC(=O)N(CC3CCCO3)C(C(=O)NC3CCCC3)c3ccc(O)cc3)n2)o1 (stereo not drawn) | 0.14% |
| CCn1cc(-c2cc(C(=O)O)c3ccccc3n2)cn1 | 27.3% |
| O=C(Nc1nnc2n1CCS2)c1ccco1 | 18.9% |
| COC(=O)CSc1nc2ncc(Cl)cc2[nH]1 | -10.3% |
| Cc1ccc(C(=O)Nc2ncccc2C)cc1S(=O)(=O)N1CCOCC1 | 1.75% |
| CCc1ccc(NC(=O)C2CC(=O)N(C(C)C)C2)cc1 (stereo not drawn) | 7.1% |
| CCO.CCn1c(COc2ccc3c(c2)OCO3)nnc1SCC(=O)O | -0.394% |
| COc1ccccc1C1NC(=O)NC(C)=C1C(=O)OC1CCCCC1 (stereo not drawn) | 6.66% |
| O=C(COC(=O)c1cncc(Br)c1)NCc1ccccc1Cl | 21.6% |

| SMILES | hERG current change (%, negative = inhibition) at 10uM |
| --- | --- |
| COC(=O)C1=C(O)/C(=C\c2cc(C)n(-c3ccc(F)cc3)c2C)N=C1C | -25.5% |
| COC(=O)c1c(NC(=O)Cc2ccccc2)sc(C)c1C | 0.768% |
| CC(C)C(C)NC(=O)CN1C(=O)NC2(CCc3ccccc32)C1=O (stereo not drawn) | 2.6% |
| CN(C)S(=O)(=O)c1ccc(C(=O)NCc2nc3ccccc3s2)cc1 | 1.24% |
| COc1ccc(-n2ncc3c(SCC(=O)NNC(C)=O)ncnc32)cc1 | 18.5% |
| COc1cccc(NC(=O)COc2ccc3c(c2)CCC3)c1 | 2.74% |
| O=C(O)c1cccc2c1C(=O)c1cccc3snc-2c13 | -0.646% |
| COc1cccc(NC(=O)CN(C)C(=O)c2c(C)noc2C)c1 | -18.2% |
| N/C(=N\OC(=O)c1cccc(Cl)c1)c1ccccn1 | 19.1% |
| CCOc1ccc(C(=O)NC(=S)Nc2ccc(N3CCCCC3)cc2)cc1[N+](=O)[O-] | 8.37% |
| CC(=O)c1ccc(NC(=S)NC(=O)/C=C/c2ccc(F)cc2)cc1 | 20% |
| COc1ccc(C(=O)N/N=C/c2c(CO)cnc(C)c2O)cc1 | -1.9% |
| O=C(Nc1ccc(F)c(Cl)c1)Nc1cnccn1 | 11.9% |
| S=c1[nH]nc(COc2ccc3c(c2)OCO3)n1-c1ccccc1 | 29.4% |
| Cc1ccc(CCN2CC(C(=O)NCCN3CCCCCC3)CC2=O)cc1 (stereo not drawn) | -3.28% |
| CC(C)Oc1cccc(C(=O)NC(=S)Nc2ccccc2)c1 | -7.26% |
| CCC(=O)c1cc2c(C)cc(=O)oc2c(C)c1O | -7.17% |
| COc1ccc(C(=O)NC2CCN(CC(=O)Nc3c(C)cccc3C)CC2)cc1OC | 18.7% |
| C=CC(=O)N(CCC)C(c1ccccc1)c1ccccc1OC (stereo not drawn) | -5.5% |
| O=C(Nc1nc2nc(-c3ccccc3)cc(=O)n2[nH]1)c1ccccc1 | 13.7% |
| Cc1cc(C)c(C)c(OCCn2ccnc2)c1 | 10.1% |
